Measurements as given in the supplement of paper PMC3724861.
The other results are listed elsewhere or left out.

The sequences below were run on T1, Caupolican (Caup) homeodomain DNA-binding domain (assay: PBM E-score (8-mer, recovered from the published 9-mer minima) (E-score (dimensionless, -0.5 to 0.5)); Drosophila protein; higher = stronger relative binding preference, active = 0.31 or more).
T1 sequence: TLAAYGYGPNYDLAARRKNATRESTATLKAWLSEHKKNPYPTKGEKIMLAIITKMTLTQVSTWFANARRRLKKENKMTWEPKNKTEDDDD
Outline: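 Caup's homeodomain DNA-binding domain (residues 214-303) was produced by in vitro transcription and translation and applied at 100 nM to custom-designed protein binding microarrays. Each value is an enrichment score giving relative binding preference for a short DNA word; higher means stronger. Published 9-mer scores were the minimum of their two constituent 8-mer scores, and the 8-mer values were recovered from those minima. A cutoff of 0.31 marks candidate binding sequences.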

PBM E-score, ≥ 0.129:
ACAGAGAT

PBM E-score, active:
ATGTTGTC 0.424
AACAACTA ≥ 0.319
TGATAACA 0.322

PBM E-score, ≥ 0.04:
TCGTGGAA

PBM E-score, ≥ 0.0663:
AGGTTCAA

PBM E-score, ≥ 0.0301:
ACTAGGCA

PBM E-score, ≥ 0.0431:
ATACGCTC

PBM E-score, ≥ 0.105:
ACAGAGCA

PBM E-score, ≥ -0.076:
ACGGCTCA

PBM E-score, inactive:
TCCTGTAA 0.2
ACAATTCA 0.155
GATCACCC 0.0141
CGTGCACC -0.134
ACTGCTGG -0.2
ACCTACTG 0.0945
CTGCGAGA -0.15
CTTATTAC 0.0885
ACCGTGCC -0.0949
CGGAATTC 0.00733
CACGTAGG 0.0202
ACGTACTG 0.0839
CCCGGGCG -0.278
ATACTAAC 0.106
CAGAAGCA 0.0288
ACGTGCTC 0.0832
TCAACAGA 0.125
CGCAGTGC -0.184
ACGTATCG 0.15
AGCGAGAA -0.0132
CTATAAAA 0.0732
ATCGTATG 0.129
GCCTAATA 0.0262
ATGCGTCA 0.0147
CCTCATTC -0.0598
TAGACCGA -0.00841
GAAGTTCC -0.197
GAATTCTA 0.0891
GTACTCCA 0.0363
AAGTAACC 0.0819
GCGACAAC 0.224
CTGAACCC -0.166
CCAACGAA -0.0476
AGGTGCGC -0.167
CGAACCCC -0.249
GGATAAAA -0.0138
ATAGCATG 0.116
AGACACAC 0.139
CCGGCGGC -0.308
CACGACAC 0.165
CCACAAGA -0.0272
ATCTAGCG 0.00377
CCTTTGGC -0.121
CGAATTTC 0.0286
CACTAGAA -0.0801
CACCTCCG -0.0883
CGGGATAA 0.0809
AGTTCAGG 0.00941
AGTGGACA 0.161
CACAAACG 0.0867
CCGTGGAC -0.165
CGGATTAA 0.0202
CGCGTATA -0.0122
AGGGGCAC -0.133
GTCCGAAC -0.0421
CTCTATGC -0.076
GTTACCGA 0.0117
GCTAGCCA -0.207
CACGACTA 0.0952
TAGAACAA 0.226
CACGGGCC -0.237
CGAGGAGC -0.158
GCAACTAC 0.0804
TCCAGCGA -0.0857
CGCCCGCG -0.302
CGGGTACA 0.19
ACTCCTAT 0.0533
CACCGTAG -0.0233
CCTTTCGC -0.167
CGTTGGTC -0.0452
AGTGCGGC -0.171
AATTTTAG -3e-05
CCATCGCA -0.0771
GGCCTATA -0.138
CTACTCTC -0.105
AGAAATTG 0.0427
CCATCTCA -0.0304
CAAGTCGC -0.0579
ACGAGCAC 0.0699
ACCTTCAA 0.0209
AAGCCTTC -0.0638
CTGGACTC -0.124
CGGTGAAG -0.203
GTATCATA 0.212
CAGATCAA -0.0195
CCATCAAA -0.0357
ATAGCCCC -0.231
GCCAAGCA -0.0756
GATACGGC -0.174
TAATCTAA 0.116
CCAGAAGC -0.184
AAATAACA 0.276
GCACACGC -0.0248
CTAATACA 0.258
AAGACCCA -0.186
CCTTCCCA -0.182
CGAGATTA 0.0275
AAGAAGCC -0.109
AGACTCTC -0.0666
CCATTAAC 0.182
GAGTAATA 0.167
ACATTACT 0.227
ATAACTGA 0.0981
TGGCACAA 0.0426
GTTGAAAC 0.00946
GGGCGGAC -0.278
TACCTAAA 0.052
CTGTGCGC -0.117
ATAGTAGG -0.0326
ATATGTGA 0.25
CCCTCTCC -0.238
CCGACAAG 0.206
CCAGTGGA -0.117
CGTTTTGA 0.0518
AGTTGAAA 0.0459
CATCTGCG -0.00421
CCAAGAGA -0.016
CTCCGGGA -0.206
AGATGCGA 0.0201
TCTACAGA 0.0692
ATGAGCGA -0.0133
AGCAAACG -0.0682
GTTTAGCA -0.0443
ATTTAACC 0.049
GGTTCGGA -0.117
CACGTTGA 0.0907
GACCCGGC -0.195
GCGGCACA -0.156
AAGCGAGA -0.166
ACCTCGGA -0.0144
AACTCAAC 0.0413
GCCAGGCC -0.252
GTCATCAA 0.116
AATAGCAC -0.00978
GCGTAGTA 0.0285
CAAATGAC 0.0833
CTGGCACA -0.0676
ATTTTCGC -0.00282
ACCTAAGG -0.135
ATGGGATG -0.0623
AGTCCCGA -0.126
CTCGCTGC -0.13
CTAGCCGA -0.112
GCGCCTCC -0.203
TAACTCCA -0.0511
CTTATGGC -0.172
GTCCAACA 0.147
AAGACCGT -0.0429
ACGCTGAA -0.0845
GGGCTTTA -0.186
CACTTGTC 0.271
ACGTCCGG -0.174
AGCATCAA 0.0544
AACGTCAT 0.0145
AGTTAGGC -0.031
ATTTGCAA 0.0161
AGTTCGGA -0.0352
TGTCTTAA 0.168
ATCACTAC 0.0733
AACACCGC 0.099
AAAATCAA 0.0838
CCACCTGA -0.142
ACGGCCTG -0.128
GGAACGCC -0.146
CAGCGATC -0.0487
GCAGCTCA -0.171
ACTGCGTG -0.0552
TAAAGAGA 0.00345
CAGGCGGA -0.0895
GTCACTCA 0.0346
AATGTAGC 0.0881
ACATACTC 0.219
ACGGCAGC -0.091
CGTAGTGA -0.0452
AGATAAAT 0.184
GACACCAC 0.0942
GTTTCAAA 0.0987
AGGAGGGA -0.205
AGGTCGCA -0.0788
GTCCGGAA -0.0346
TGCAGTAA 0.0534
ACCGTGGG -0.197
CATCGTGG -0.124
ATTTTGCC 0.0694
ATTGGGTG 0.061
CACGCACG -0.108
ACTCATTA 0.0828
GTCCTCGA -0.0293
ATATTGCG 0.0521
AATATCTC 0.071
CAACGCGC -0.0756
ACGGTGAT 0.12
AGCAACAA 0.182
GATTGGAC 0.0616
ATCCGTCG -0.00011
TAATCCCA 0.0674
CCTAGAAC -0.0143
AAAACCAG 0.101
ATGGAATA 0.101
CCTATCTA 0.0364
AATACCCC -0.224
ATTTGATC 0.0561
CGCCTCAG -0.27
AGTTGGAG -0.129
CCACTAAA -0.0916
ACAACGCA 0.206
ACCCATTG -0.0278
ACGTTGCC -0.149
GCAACCAC 0.0429
GAACTGAC 0.00399
CTGGTCTC -0.124
CATTAGAC -0.0721

PBM E-score, ≥ 0.0996:
GCAATCTA

PBM E-score, ≥ 0.0498:
ACGTCAGA
